Results published in PubChem BioAssay AID488969 (Vanderbilt High Throughput Screening Facility, 2010).
Whole data set: some 110,000 compounds, median “z-score” near -0.1, cut for the highest 2% near 2. The list shows a part of the results. Activity calls are given as the source filed them.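 Rule for the calls: active = z-score in the third read window above 3 or below -3; inactive = the rest.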 Non-standard residues stand in square brackets, D forms with d. Residues, ends and D or L forms follow the SMILES beside them. ξ: configuration not given here. *: point of attachment. Cbz = O=C(OCc1ccccc1)*; ξV = CC(C)C(N)C(=O)O; OtBu = CC(C)(C)O*

target: Metabotropic glutamate receptor 8 (Rattus norvegicus) (UniProt P70579); experiment: rat mGluR8 modulators via GIRK flux, primary screen, cell-based, thallium flux, HTS (AID 488969); conditions: HEK293 rat mGluR8, GIRK (G protein-gated inwardly rectifying potassium channel) thallium flux, FluoZin2; at 10 µM; stronger effect = higher value; submaximal glutamate (EC20) added with thallium
Sequence of UniProt P70579 (P70579 whole entry, looked up): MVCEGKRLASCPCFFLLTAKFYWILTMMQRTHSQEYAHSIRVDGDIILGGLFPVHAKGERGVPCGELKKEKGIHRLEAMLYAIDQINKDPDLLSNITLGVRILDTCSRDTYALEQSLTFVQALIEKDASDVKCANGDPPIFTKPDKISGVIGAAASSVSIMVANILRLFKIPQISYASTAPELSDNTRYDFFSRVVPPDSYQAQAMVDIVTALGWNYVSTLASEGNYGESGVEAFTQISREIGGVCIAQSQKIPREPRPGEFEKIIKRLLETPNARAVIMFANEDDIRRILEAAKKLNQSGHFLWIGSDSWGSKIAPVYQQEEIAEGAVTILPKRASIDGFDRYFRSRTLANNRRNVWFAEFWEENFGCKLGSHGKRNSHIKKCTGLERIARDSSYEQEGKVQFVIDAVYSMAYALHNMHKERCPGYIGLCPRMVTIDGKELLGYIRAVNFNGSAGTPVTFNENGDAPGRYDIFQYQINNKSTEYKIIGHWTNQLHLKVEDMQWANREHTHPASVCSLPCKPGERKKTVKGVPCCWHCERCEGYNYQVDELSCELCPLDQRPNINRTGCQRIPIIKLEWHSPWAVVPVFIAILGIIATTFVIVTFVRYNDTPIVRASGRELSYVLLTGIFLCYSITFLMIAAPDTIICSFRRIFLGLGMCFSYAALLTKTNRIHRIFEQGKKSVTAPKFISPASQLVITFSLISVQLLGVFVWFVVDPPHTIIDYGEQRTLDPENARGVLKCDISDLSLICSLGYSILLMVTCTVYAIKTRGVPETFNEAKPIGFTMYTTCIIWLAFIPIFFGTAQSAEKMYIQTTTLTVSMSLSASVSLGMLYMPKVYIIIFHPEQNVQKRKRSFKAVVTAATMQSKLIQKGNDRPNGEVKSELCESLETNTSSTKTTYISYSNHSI

| SMILES | z-score |
| --- | --- |
| CCNc1nc(NC#N)nc(SCC(=O)OCC)n1 | -0.413 |
| COc1ccc(CN=C2NC(=O)CC(C(=O)Nc3ccccc3C)S2)cc1 (stereo unspecified) | -0.149 |
| COc1ccccc1Nc1nc(N)nc(CN2CCCCCC2)n1 | 1.23 |
| COc1cc(NC(=O)c2ccc(COCC(F)(F)F)cc2)cc(OC)c1OC | -0.608 |
| Cc1ccc(C)c(S(=O)(=O)N/N=C2/CCCc3ccccc32)c1 | -0.153 |
| Cc1cccc(N2CCN(c3ccc(NC(=O)/C=C(/C(=O)O)c4ccccc4)cc3)CC2)c1 | 0.00838 |
| CC(C)c1cc(NCC2CCCO2)n2c(nc3ccccc32)c1C#N (stereo unspecified) | -1.25 |
| Brc1ccc(-c2noc(CCc3ccccc3)n2)o1 | 0.116 |
| CCOC(=O)C(NC(=O)CCl)(Nc1sc(C)c(CC)c1C#N)C(F)(F)F (stereo unspecified) | -0.704 |
| COc1ccc(Nc2oc(-c3ccc(Cl)cc3)nc2C#N)cc1 | -0.0925 |
| Cc1ccc2c(c1)-c1c(cnn1CC(=O)O)CO2 | -0.325 |
| COc1ccc(CNC(=O)CN2C(=O)C(C)N(c3ccc(C)cc3)C2=O)cc1 (stereo unspecified) | -0.198 |
| CC(C)(C)c1nc2c(C#N)c(-c3ccc(Cl)cc3)ccn2n1 | -0.488 |
| O=c1oc(-c2cccs2)nc2scc(-c3cccs3)c12 | -0.0494 |
| CCC(=O)Nc1ccccc1C(=O)OCC(=O)c1ccccc1 | -0.38 |
| CCOc1ccc(NC(=O)CCN2CCN(c3ccccc3)CC2)cc1 | -0.572 |
| CCOC(=O)c1c(NC(=O)Cc2cccs2)sc2c1CCCC2 | 0.258 |
| Cc1ccc(S(=O)(=O)/N=S(/C)c2ccccc2)cc1 (stereo unspecified) | 0.693 |
| CCOC(=O)c1cc(-c2ccccc2)sc1NC(=O)C(C)C | -0.259 |
| CC1=CC(c2ccc(Cl)cc2)n2nc(NC(=O)c3ccccc3)nc2N1 (stereo unspecified) | 0.22 |
| O=C(COc1ccc(Cl)cc1Cl)Nc1nc2n(n1)C(c1ccccc1)CC(=O)N2 (stereo unspecified) | -0.56 |
| CCCOc1ccc(/C=N/NC(=O)CSCc2ccc([N+](=O)[O-])cc2)cc1OCC | -0.284 |
| CCNC(=O)COc1cccc2ccccc12 | 1.28 |

| SMILES | z-score |
| --- | --- |
| CC(c1ccccc1)n1cc(C(=O)NCc2ccccn2)nn1 (stereo unspecified) | 0.775 |
| COc1cc(/C=N/N=C/c2cc(OC)c(O)c(OC)c2)cc(OC)c1O | -0.507 |
| CCS(=O)(=O)c1nnnn1-c1ccccc1S(C)(=O)=O | -0.123 |
| Cc1ccc(-c2nn3nnnc3c3ccccc23)cc1C | -0.106 |
| CN1C(=O)CC(N2CCN(c3ccc(Cl)cc3)CC2)C1=O (stereo unspecified) | -0.269 |
| O=C(OCc1ccccc1)N1CCOCCOCCN(C(=O)OCc2ccccc2)CCOCCOCC1 | -0.384 |
| Cc1ccc(C(=O)NC2CCSC2=O)cc1 (stereo unspecified) | -0.0883 |
| COCCn1c(SCC(=O)Nc2ccc(Cl)cn2)nc2ccccc21 | -0.407 |
| CCC(C)(C)NC(=O)c1ccc2c(c1)S(=O)(=O)c1ccccc1C2=O | -0.756 |
| O=C(O)CCCC(=O)N1CCc2cc(S(=O)(=O)N3CCc4ccccc43)ccc21 | -0.342 |
| CCN(CC)S(=O)(=O)c1cccc(C(=O)N[C@H](C(=O)NCc2ccccc2F)C(C)C)c1 | 0.114 |
| O=C(Oc1ccc([N+](=O)[O-])cc1)c1ccc(Cl)c(S(=O)(=O)N2CCCCC2)c1 | -0.509 |
| CS(=O)(=O)N(Cc1ccc(C(=O)NN=C2CCCC2)cc1)c1ccccc1 | -0.157 |
| CCOc1ccc(NC(=O)CC2C(=O)N(C)C(=S)N2Cc2ccc3c(c2)OCO3)cc1 (stereo unspecified) | -0.0979 |
| O=C(NNc1ccc([N+](=O)[O-])cc1)C12CC3CC(CC(C3)C1)C2 | -0.251 |
| Cc1ccccc1NC(=O)/C(=C\c1cccs1)NC(=O)c1ccccc1 | -0.288 |
| O=C(c1cccs1)N1CCN(S(=O)(=O)N2CCCCC2)CC1 | 0.729 |
| CC(C)OC(=O)CSc1nnc(-c2ccccn2)n1-c1ccccc1 | 0.387 |
| Cc1ccc(C(=O)Nn2cnc3scc(-c4cccs4)c3c2=O)c(O)c1 | -0.0878 |
| COc1ccc(C(=O)OCCCN(C)C)cc1OC | -0.136 |
| CCCCNC(=O)COc1ccccc1C(=O)c1cc(C#N)c(=O)n(CCOC)c1 | -0.344 |
| CC(NC(=O)C1CCC(=O)N1Cc1ccc(F)cc1)c1ccc2c(c1)OCCO2 (stereo unspecified) | -0.129 |
| C=CCn1c(SCc2ccc(Cl)cc2)nc2cc(C(=O)N3CCC(C(N)=O)CC3)ccc2c1=O | -0.178 |

| SMILES | z-score |
| --- | --- |
| C/C(=C\C(=O)c1ccc(C)o1)Nc1ccc(C(=O)O)cc1C | 0.648 |
| Cc1noc(C(=O)Nc2sc3c(c2C#N)CCC3)c1Cl | -1.31 |
| CCC(OC(=O)c1cc2sccc2n1C)C(=O)NCC1CCCO1 (stereo unspecified) | -0.0491 |
| O=C(COC(=O)c1ccc(Cl)c([N+](=O)[O-])c1)Nc1ccccc1OC(F)F | -0.229 |
| COc1ccccc1NC(=O)c1ccc(-c2ccccc2F)o1 | 0.0911 |
| COc1ccc(N2CCN(C(=O)c3ccc(C)cc3)CC2)c([N+](=O)[O-])c1 | -0.327 |
| COc1ccc(C=O)cc1COc1ccc(C)cc1[N+](=O)[O-] | -0.197 |
| C=CCOc1c(Cl)cc(CNc2ccc(C)c(Cl)c2)cc1OC | -0.139 |
| COc1ccc(-c2cn3cc(C)ccc3n2)cc1OC | 0.227 |
| N#Cc1c2n(c3c(-c4ccccc4)ncnc13)CCC2 | -0.173 |
| CSc1nsc(SC)c1NC(=O)OCC1CCCO1 (stereo unspecified) | -0.0464 |
| CC(C)(C)C(=O)Nc1ccccc1C(=O)N1CCCC1 | -0.35 |
| O=C(CC(Sc1ccccc1)c1cccs1)c1ccco1 (stereo unspecified) | 0.38 |
| Nc1cc2c([N+](=O)[O-])cccc2o1 | 0.254 |
| CN(c1ccc(C(=O)Nc2nccs2)cc1)S(=O)(=O)c1ccccc1 | -0.945 |
| CC(C)C(NC(=O)OCc1ccccc1)C(=O)NCC(=O)OC(C)(C)C (stereo unspecified) (Cbz-[ξV]-Gly-OtBu) | 0.0191 |
| CC(C)(C)n1nnnc1C(c1ccc(C(F)(F)F)cc1)N(Cc1ccccc1)Cc1ccco1 (stereo unspecified) | 0.067 |
| Cc1ccc2[nH]c3c(c2c1)CN(C(=O)CN1CCN(Cc2ccc4c(c2)OCO4)CC1)CC3 | -0.595 |
| CC1CCCCC1NC(=O)CSc1nnc(N)s1 (stereo unspecified) | 0.0767 |
| O=C(COc1ccccc1)NCCSCc1ccco1 | -0.155 |
| Cc1ccc(S(=O)(=O)NCCNC(=O)c2cc(OCC(F)(F)F)ccc2OCC(F)(F)F)cc1 | -0.185 |
| CC1CN(C(=O)CCc2ccccc2)C(C)CN1C(=O)CCc1ccccc1 (stereo unspecified) | -0.466 |
| C/C(=N\NC(=O)c1ccccc1O)c1ccc(Br)s1 | 2.99 |

| SMILES | z-score |
| --- | --- |
| Cc1ccc2c(c1)NC(=O)C(CC(=O)NCCCN1CCCCC1)O2 (stereo unspecified) | -0.0168 |
| O=C(Nc1ccc2oc(-c3ccccc3)nc2c1)c1cccs1 | 0.244 |
| O=C(NCCOc1cccc(Oc2ccccc2)c1)c1cc(-n2cnnc2)ccc1Cl | -0.165 |
| CS(=O)(=O)c1ccc(Sc2nc3ccccc3[nH]2)c([N+](=O)[O-])c1 | -0.102 |
| Cc1ccccc1S(=O)(=O)c1c(C)cc(C)n(CC(C)C)c1=O | 0.00175 |
| O=C(c1ccccc1)c1cc(-c2ccccn2)c(N2CCOCC2)s1 | -0.371 |
| COc1ccc(NCC(O)Cn2cnc3c2c(=O)n(C)c(=O)n3C)cc1 (stereo unspecified) | -0.122 |
| O=C(O)c1cc(-c2ccccc2)n[nH]1 | 0.685 |
| CCC(=O)Nc1nc2c(OC)ccc(OC)c2s1 | 0.14 |
| CSc1nsc(SC)c1C(=O)Nc1ccc(C)cc1 | -0.0877 |
| CN(C)CCCOC(=O)c1cc2ccccc2o1 | 0.619 |
| Nc1cc(C(=O)c2cccs2)ccc1Cl | 0.11 |
| COc1ccccc1/C=N/n1c(C)nnc1-n1nc(C)cc1C | -0.476 |
| Cc1ccc2[nH]c(C(=O)O)c(NC(=O)c3ccccc3[N+](=O)[O-])c2c1 | 0.136 |
| COc1cc2cnc(Cl)nc2cc1OC | -0.182 |
| CCCC(C)NNC(=O)c1cc2ccccc2[nH]1 (stereo unspecified) | 0.0595 |
| COCc1cc(=O)n2c([nH]c3ccccc32)c1C#N | 0.0741 |
| COC(=O)c1ccc(N2CCN(C)CC2)c(NC(=O)c2cc3ccccc3o2)c1 | -0.491 |
| CCOC(=O)C1CCCN(S(=O)(=O)c2ccc(F)c(C(=O)Nc3ccc(F)c(F)c3)c2)C1 (stereo unspecified) | -0.23 |
| CCCCOC(=O)c1ccc(NC(c2ccc(C)cc2)P(=O)(OC)OC)cc1 (stereo unspecified) | -0.0897 |
| Cc1cccc(C(=O)O/N=C2\CCS(=O)(=O)c3sccc32)c1 | -0.127 |
| CCc1ccc(CN(C)CCc2ccccn2)cc1 | -0.314 |
| Cc1cc(N2CCN(c3ccccc3)CC2)n2cc(-c3ccccc3)nc2n1 | -0.235 |

| SMILES | z-score |
| --- | --- |
| Cc1cc(C)c2nc(SC(C)C(=O)NCC(=O)Nc3ccc(F)c(F)c3F)cc(C)c2c1 (stereo unspecified) | active: 7.48 |
| COCCn1nnnc1SCC(=O)N1CCCCC1 | -0.27 |
| COCCNC(=O)c1cnn2c1NC(c1ccco1)CC2C(F)(F)F (stereo unspecified) | 0.0267 |
| Cc1cccc(SCc2noc(C(=O)NC(C)C)c2C(=O)O)c1 | -0.0231 |
| Cc1ccccc1CN1CCN(S(=O)(=O)c2ccc(F)cc2)CC1 | -0.61 |
| CCc1ccc(-c2nc(CSCC(=O)N3CCN(c4ncccn4)CC3)c(C)o2)cc1 | -0.64 |
| NS(=O)(=O)c1ccc(NC(=S)NC(=O)c2ccco2)cc1 | -0.0865 |
| CCCc1nnc(SCC(=O)N2CCCCC2C)n1CC (stereo unspecified) | 0.0594 |
| CCOC(=O)c1cc(C)sc1NC(=O)CCC(=O)O | -0.17 |
| Cc1sc(Nc2ccc([N+](=O)[O-])cc2)nc1-c1c(C)n(C)n(-c2ccccc2)c1=O | -0.51 |
| O=C(OCn1nnc2ccccc2c1=O)c1ccc(S(=O)(=O)N2CCOCC2)cc1 | -0.396 |
| COC(=O)C1=C(C)Nc2c(c(=O)n(C)c(=O)n2C)C1c1cccnc1 (stereo unspecified) | -1.75 |
| Cc1[nH]nc2c1C(c1ccccn1)N(c1ccc(Br)cc1)C2=O (stereo unspecified) | 0.293 |
| CCOc1ccc(-c2nc(-c3ccc(OC)cc3)no2)cc1OCC | 2.87 |
| CCc1ccc(CNC(=O)C2CCCN(c3nc4ccccc4o3)C2)cc1 (stereo unspecified) | -0.258 |
| COc1ccc(-c2cc(C(=O)Nc3nc4ccccc4s3)c3ccccc3n2)cc1OC | -0.0904 |
| COc1ccccc1NS(=O)(=O)c1cc(NC(=O)CNC(=O)c2cc(C)cc(C)c2)ccc1C | -0.0673 |
| CC(=O)c1cc2c(cc1N/C(=N/S(=O)(=O)c1ccc(C)cc1)c1ccccc1)OCO2 | -0.143 |
| C=C(C)Cn1c(SCC(=O)O)nc2c1c(=O)[nH]c(=O)n2C | -0.35 |
